Results reported in PubChem BioAssay AID1745853 (National Center for Advancing Translational Sciences (NCATS), 2022).
Some of the results follow. Shown are side measurements of this screen, not its main read-out; they come without a call.

Columns and labels:
Test in all cases: Primary Screen for Target Class Profiling of Small Molecule Inhibitors of Methyltransferases
[1] = biological target: Glycine N-methyltransferase (Homo sapiens) (UniProt Q14749); details: purified enzyme, MTase-Glo SAH luminescence; measured here: GNMT inhibition; at 40 µM; stronger effect = lower value
Procedure, shortened: (§1)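 Each enzyme was assayed with SAM and its substrate. SAH formation detected by MTase-Glo luminescence; single-point 40 uM screen[…].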

[2] = biological target: Guanidinoacetate N-methyltransferase (Homo sapiens) (UniProt Q14353); details: purified enzyme, MTase-Glo SAH luminescence; measured here: GAMT inhibition; at 40 µM; stronger effect = lower value
Procedure, shortened: as §1

[3] = biological target: Histamine N-methyltransferase (Homo sapiens) (UniProt P50135); details: purified enzyme, MTase-Glo SAH luminescence; measured here: HNMT inhibition; at 40 µM; stronger effect = lower value
Procedure, shortened: as §1

[4] = biological target: Nicotinamide N-methyltransferase (Homo sapiens) (UniProt P40261); details: purified enzyme, MTase-Glo SAH luminescence; measured here: NNMT inhibition; at 40 µM; stronger effect = lower value
Procedure, shortened: as §1

[5] = biological target: Phenylethanolamine N-methyltransferase (Homo sapiens) (UniProt P11086); details: purified enzyme, MTase-Glo SAH luminescence; measured here: PNMT inhibition; at 40 µM; stronger effect = lower value
Procedure, shortened: as §1
% is set by controls: 0 for no effect and ±100 for the full control effect.

| SMILES | activity change, negative = inhibition [1] [%] | activity change, negative = inhibition [2] [%] | activity change, negative = inhibition [3] [%] | activity change, negative = inhibition [4] [%] | activity change, negative = inhibition [5] [%] |
| --- | --- | --- | --- | --- | --- |
| Cc1ccc(C)c(NC(=O)N2CCn3cccc3C2Cc2ccccc2)c1 (stereo not given) | -12.8 | -0.518 | -16.9 | -13.9 | -10.3 |
| CCOC(=O)c1cc2n(n1)CC(C)(C(=O)NC1CCCCCC1)N(Cc1ccc(CC)cc1)C2=O (stereo not given) | 2.09 | 0 | 1.44 | -5.28 | 3.57 |
| CN(C)CC1(O)CCC2(CCN(C(=O)C3CCCC3)CC2)CC1 | 0.298 | -0.098 | -0.664 | -8.89 | 13.8 |
| COc1ccc(OC)c(Nc2nc3c(S(=O)(=O)c4ccc(F)cc4)nnn3c3ccccc23)c1 | 3.1 | 1.17 | 10.4 | 13.9 | 2.79 |
| CN(C)CC#CCCC(=O)C(O)(c1ccccc1)C1CCC1 (stereo not given) | 1.39 | 0.69 | -1.74 | -10 | -0.701 |
| O=C(CCCc1nnc2n3nc(-c4ccccc4)nc3c3ccccc3n12)NCc1ccc(Cl)cc1 | -1.15 | 5.76 | 5.99 | 11.7 | 1.14 |
| COc1ccccc1-c1cc(C(=O)NC2CC2)nn2cnnc12 | -3.29 | -2.55 | -0.958 | -5.66 | -4.78 |
| Cc1ccc(CN2CCNC(=O)C2CC(=O)N(CC(C)C)CC(C)C)cc1 (stereo not given) | -10 | -5.88 | -3.31 | -15.5 | -8.44 |
| CCOc1ccc(Cl)cc1CN(C)C(=O)C1CC(=O)N(CC)C1 (stereo not given) | 0.446 | 1.39 | -1.13 | 1.8 | 0.796 |
| CCC1c2ccc(C)n2CCN1C(=O)Nc1cccc(Br)c1 (stereo not given) | -2.39 | 0 | -1.28 | -9.77 | -6.61 |
| CCOc1ccc(NC(=O)N2Cc3c(sc4c3CCCC4)-n3cccc3C2c2cccc(C)c2)cc1 (stereo not given) | -4.06 | 0 | 1.66 | -0.656 | 1.98 |
| CC(C)(C)NCCCNC(=O)c1cccc(Br)c1 | 0.554 | 7.63 | 2.72 | -8.71 | 5.57 |
| C[C@@H]1O[C@@H](O[C@@H]2[C@@H](O)[C@@H](O[C@]3(CO)O[C@H](CO)[C@@H](O)[C@@H]3OC(=O)/C=C/c3ccc(O)cc3)O[C@H](CO)[C@H]2OC(=O)/C=C/c2ccc(O)cc2)[C@H](O)[C@H](O)[C@H]1O[C@@H]1O[C@@H](C)[C@H](O[C@@H]2OC[C@](O)(CO)[C@H]2O)[C@@H](O)[C@H]1O | -1.34 | 1.87 | 5.19 | -7.77 | -0.498 |
| COc1ccccc1-c1[nH]nc2ncc(C(=O)NCC3CC3)nc12 | -44.7 | -35.6 | -52.1 | -31.4 | -17.1 |
| CN1C(=O)c2cc(C(=O)N3CCN(c4ccc(F)cc4)CC3)nn2CC1(C)C(=O)NC1CCCC1 (stereo not given) | 3.02 | 0 | 3.59 | 2.18 | 3.41 |
| CC1(C(=O)NCc2ccccc2)Cn2nc(-c3ccccc3)cc2C(=O)N1CCc1ccco1 (stereo not given) | -4.51 | -2.61 | -2.48 | -10.4 | -8.7 |
| C=C1CCC2C(C(C)(C)O)CCC2(C)CC(O)C(=C)CCC1O (stereo not given) | -0.86 | 0.481 | 3.96 | -10.7 | -8.38 |
| CCCC1c2cccn2CCN1C(=O)Nc1ccc(C)c(C)c1 (stereo not given) | -1.2 | 0 | -12.3 | -1.42 | 0.303 |
